The values below come from US20250214977A1, “STAT6 INHIBITORS AND USES THEREOF” (Kymera Therapeutics, Inc., priority 2024, published 2025).

Some results are limits rather than exact numbers.

The experiment addresses T1, biotinylated truncated STAT6 (123-632)-avi (Homo sapiens, UniProt P42226).
T1 sequence (P42226 123-632 limits assumed): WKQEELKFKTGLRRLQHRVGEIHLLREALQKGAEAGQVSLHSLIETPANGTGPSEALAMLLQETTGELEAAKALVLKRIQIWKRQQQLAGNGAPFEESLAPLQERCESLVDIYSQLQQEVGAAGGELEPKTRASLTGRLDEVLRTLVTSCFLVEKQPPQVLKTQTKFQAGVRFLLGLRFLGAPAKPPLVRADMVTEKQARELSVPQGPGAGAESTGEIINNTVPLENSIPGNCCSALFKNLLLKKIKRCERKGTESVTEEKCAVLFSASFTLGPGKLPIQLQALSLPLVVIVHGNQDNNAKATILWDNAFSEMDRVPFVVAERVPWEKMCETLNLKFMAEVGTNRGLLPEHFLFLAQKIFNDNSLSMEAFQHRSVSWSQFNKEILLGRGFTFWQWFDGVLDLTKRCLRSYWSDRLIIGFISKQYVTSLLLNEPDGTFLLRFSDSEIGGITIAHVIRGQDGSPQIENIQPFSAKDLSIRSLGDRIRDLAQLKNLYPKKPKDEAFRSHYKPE
As to the kind of experiment: Homogenous Time-Resolved Fluorescence (HTRF) binding assay. The conditions noted are these: 0.15 nM biotinylated truncated STAT6 (123-632)-avi, 20 nM fluorescein-labeled probe, 30 minutes at room temperature.

Take `CN(C)C(=O)c1cc2cc(C3=CCCN(C(=O)[C@H]4Cc5ccc(O)cc5CN4)C3)ccc2o1` [Example I-239]: the IC50 fell in the range of 10 to 100 µM.
The result for `CN(C)C(=O)c1cn2cc(C3=CCCN(C(=O)CCn4ccnn4)C3)ccc2n1` [Example I-241] reads 1 to 10 µM; that for `CN(C)C(=O)c1cc2cc(C3=CCCN(C(=O)CCn4ccnn4)C3)ccc2s1` [Example I-243], 1 to 10 µM; that for `CN(C)C(=O)c1cc2cc(C3=CCCN(C(=O)CCn4ccnn4)C3)cnc2s1` [Example I-244], 0.1 to 1 µM.
`CN(C)C(=O)c1cc2cc(C3=CCCN(C(=O)Cc4nc5ccccc5[nH]4)C3)ccc2o1` [Example I-245] yielded an IC50 of 10 to 100 µM.
On to `CN(C)C(=O)c1cc2cc(C3=CCCN(C(=O)Cc4cnccn4)C3)ccc2o1` [Example I-246], for which the IC50 is 10 to 100 µM.
For the compound `CN(C)C(=O)c1cc2cc(C3=CCCN(C(=O)Cc4ncccn4)C3)ccc2o1` [Example I-249], the IC50 was 10 to 100 µM.
Take `CN(C)C(=O)c1cc2cc(C3=CCCN(C(=O)CCc4cn5ccccc5n4)C3)ccc2o1` [Example I-251]: the half-inhibitory concentration (IC50) was 10 to 100 µM.
In turn, `CC(=O)NCc1ccc(CC(=O)N2CCC=C(c3ccc4oc(C(=O)N(C)C)cc4c3)C2)cc1` [Example I-252] gave an IC50 of 1 to 10 µM.
In turn, `CN(C)C(=O)c1cc2cc(C3=CCCN(C(=O)Cn4nnc5ccccc54)C3)ccc2o1` [Example I-254] displayed a concentration for half-maximal inhibition (IC50) of 10 to 100 µM.
The compound `CN(C)C(=O)c1cc2cc(C3=CCCN(C(=O)CC4CCOCC4)C3)ccc2o1` [Example I-255] yielded a 50% inhibitory concentration (IC50) of 10 to 100 µM.
For `COc1ccc(CC(=O)N2CCC=C(c3ccc4oc(C(=O)N(C)C)cc4c3)C2)cc1C#N` [Example I-256], the IC50 was in the range of 10 to 100 µM.
For `CN(C)C(=O)c1cc2ccc(C3=CCCN(C(=O)Cc4cccnc4O)C3)cc2[nH]1` [Example I-257], the half-maximal inhibitory concentration (IC50) lay within 10 to 100 µM.
On to `CN(C)C(=O)c1cc2cc(C3=CCCN(C(=O)Cc4ccc5c(c4)CN(C(=O)OC(C)(C)C)CC5)C3)ccc2o1` [Example I-259], for which the IC50 lay in the range of 10 to 100 µM.
Compound `CN(C)C(=O)c1cc2cc(C3=CCCN(C(=O)Cn4cccn4)C3)ccc2o1` [Example I-261] had an IC50 of 10 to 100 µM.
Consider `CN(C)C(=O)c1cc2cc(C3=CCCN(C(=O)Cc4ccccn4)C3)ccc2o1` [Example I-263], for which the concentration for half-maximal inhibition (IC50) is 10 to 100 µM.
In the case of `CN(C)C(=O)c1cc2cc(C3=CCCN(C(=O)CCn4ccc5ccccc54)C3)ccc2o1` [Example I-264], the IC50 lay in the range of 10 to 100 µM.
`CN(C)C(=O)c1cc2cc(C3=CCCN(C(=O)CCn4cnc5ccccc54)C3)ccc2o1` [Example I-265] came in with a 50% inhibitory concentration (IC50) of 10 to 100 µM.
Regarding `CN(C)C(=O)c1cc2cc(C3=CCCN(C(=O)CCc4ccc5ccccc5c4)C3)ccc2o1` [Example I-266], the half-inhibitory concentration (IC50) was 10 to 100 µM.
Consider `CN(C)C(=O)c1cc2cc(C3=CCCN(C(=O)CCc4nc5ccccc5[nH]4)C3)ccc2o1` [Example I-267], for which the IC50 was in the range of 1 to 10 µM.
With `CN(C)C(=O)c1cc2cc(C3=CCCN(C(=O)CCc4ccccn4)C3)ccc2o1` [Example I-268] the figure was 1 to 10 µM; with `CN(C)C(=O)c1cc2ccc(C3=CCCN(C(=O)CCn4ccnn4)C3)cc2s1` [Example I-269], 0.1 to 1 µM.
As for `CN(C)C(=O)c1cc2cc(C3=CCCN(C(=O)Cc4ccncn4)C3)ccc2o1` [Example I-270], the half-inhibitory concentration (IC50) lay within 10 to 100 µM.
For `CN(C)C(=O)c1cc2cc(C3=CCCN(C(=O)Cc4coc5ccccc45)C3)ccc2o1` [Example I-271], the IC50 is 10 to 100 µM.
With `CN(C)C(=O)c1cc2cc(C3=CCCN(C(=O)Cc4ccc5ncccc5c4)C3)ccc2o1` [Example I-273] the figure was 10 to 100 µM.
Take `CN(C)C(=O)c1cc2cc(C3=CCCN(C(=O)Cn4ccc5ccccc54)C3)ccc2o1` [Example I-274]: the IC50 lay within 10 to 100 µM.
For the compound `CN(C)C(=O)c1cc2cc(C3=CCCN(C(=O)Cc4cccnc4)C3)ccc2o1` [Example I-275], the half-inhibitory concentration (IC50) is 10 to 100 µM.
Compound `CN(C)C(=O)c1cc2cc(C3=CCCN(C(=O)Cc4cnc5ccccn45)C3)ccc2o1` [Example I-276] had a 50% inhibitory concentration (IC50) of 1 to 10 µM.
The compound `O=C(CCn1ccnn1)N1CCC=C(c2c[nH]c3cc(-n4ccccc4=O)ccc23)C1` [Example I-277] yielded an IC50 of 1 to 10 µM.
The result for `O=C(CCn1ccnn1)N1CCC=C(c2ccc3occc3c2)C1` [Example I-278] reads 10 to 100 µM; that for `CN(C)C(=O)c1cc2cc(C3=CCCN(C(=O)Cc4ccncc4)C3)ccc2o1` [Example I-279], 10 to 100 µM.
The result for `CN(C)C(=O)c1cc2cc(C3=CCCN(C(=O)CCc4ccc5c(c4)OCCO5)C3)ccc2o1` [Example I-280] reads 10 to 100 µM.
The result for `CN(C)C(=O)c1cc2cc(C3=CCCN(C(=O)CCc4ccc5c(c4)OCO5)C3)ccc2o1` [Example I-282] reads 10 to 100 µM; that for `CN(C)C(=O)c1cc2cc(C3=CCCN(C(=O)Cc4ccccc4)C3)ccc2o1` [Example I-283], 1 to 10 µM; that for `CN(C)C(=O)c1cc2cc(C3=CCCN(C(=O)Cn4ncc5ccccc54)C3)ccc2o1` [Example I-284], 10 to 100 µM.
`CN(C)C(=O)c1cc2cc(C3=CCCN(C(=O)C4Cc5ccccc5CN4C)C3)ccc2o1` (centres unmarked) [Example I-285] gave a 50% inhibitory concentration (IC50) of 10 to 100 µM.
In turn, `CN(C)C(=O)c1cc2cc(C3=CCCN(C(=O)Cc4ccc5ncnn5c4)C3)ccc2o1` [Example I-286] came in with an IC50 of 10 to 100 µM.
The result for `CC(=O)Nc1ccc(CC(=O)N2CCC=C(c3ccc4oc(C(=O)N(C)C)cc4c3)C2)cc1` [Example I-287] reads 1 to 10 µM; that for `CN(C)C(=O)c1cc2cc(C3=CCCN(C(=O)CCc4cccc5ccccc45)C3)ccc2o1` [Example I-291], 10 to 100 µM.
As to `CN(C)C(=O)c1cc2cc(C3=CCCN(C(=O)Cc4nc5ccccc5o4)C3)ccc2o1` [Example I-292], the IC50 lay in the range of 10 to 100 µM.
Turning to `CN(C)C(=O)c1cc2cc(C3=CCCN(C(=O)Cc4cncnc4)C3)ccc2o1` [Example I-293], the IC50 was 10 to 100 µM.
Compound `CN(C)C(=O)c1cc2cc(C3=CCCN(C(=O)Cc4cccc5ccccc45)C3)ccc2o1` [Example I-294] returned an IC50 of 10 to 100 µM.
`CN(C)C(=O)c1cc2cc(C3=CCCN(C(=O)Cc4ccc5ccccc5c4)C3)ccc2o1` [Example I-295] showed an IC50 of 10 to 100 µM.
With `CN(C)C(=O)c1cc2cc(C3=CCCN(C(=O)CN4CCc5ccccc5C4)C3)ccc2o1` [Example I-296], the IC50 was 10 to 100 µM.
`CN(C)C(=O)c1cc2cc(C3=CCCN(C(=O)Cc4ccc5nccnc5c4)C3)ccc2o1` [Example I-297] registered a 50% inhibitory concentration (IC50) of 10 to 100 µM.
`CN(C)C(=O)c1cc2ccc(C3=CCCN(C(=O)CCn4ccnn4)C3)cn2n1` [Example I-298]: the IC50 lay in the range of 10 to 100 µM.
`CN(C)C(=O)c1cc2cc(C3=CCCN(C(=O)CCc4cccs4)C3)ccc2o1` [Example I-299]: the IC50 is 1 to 10 µM.
Take `CN(C)C(=O)c1cc2cc(C3=CCCN(C(=O)CCc4c[nH]c5ccccc45)C3)ccc2o1` [Example I-300]: the IC50 lay within 10 to 100 µM.
Take `CN(C)C(=O)c1cc2cc(C3=CCCN(C(=O)CCc4cccnc4)C3)ccc2o1` [Example I-301]: the concentration for half-maximal inhibition (IC50) lay in the range of 1 to 10 µM.
Consider `CN(C)C(=O)c1cc2cc(C3=CCCN(C(=O)Cc4n[nH]c5ccccc45)C3)ccc2o1` [Example I-302], for which the IC50 lay in the range of 10 to 100 µM.
Turning to `CN(C)C(=O)c1cc2ccc(C3=CCCN(C(=O)CCn4ccnn4)C3)c(F)c2[nH]1` [Example I-304], the IC50 was below 0.1 µM.
As to `CN(C)C(=O)c1cc2cc(C3CCCN(C(=O)CCn4ccnn4)C3)ccc2o1` (centres unmarked) [Example I-305], the IC50 was 1 to 10 µM.
The result for `CN(C)C(=O)c1cc2cc(C3=CCCN(C(=O)Cc4ccc5c(c4)OCCO5)C3)ccc2o1` [Example I-306] reads 10 to 100 µM; that for `O=C(NCCO)c1cc2cc(C3=CCCN(C(=O)CCn4ccnn4)C3)ccc2o1` [Example I-307], 10 to 100 µM; that for `CN(C)C(=O)c1cc2cc(C3=CCCN(C(=O)CCn4ccnn4)C3)ccc2[nH]1` [Example I-308], 1 to 10 µM.
In turn, `CN(C)C(=O)c1cc2cc(C3=CCCN(C(=O)Cc4c[nH]c5ncccc45)C3)ccc2o1` [Example I-309] gave a half-maximal inhibitory concentration (IC50) of 10 to 100 µM.
Turning to `CN(C)C(=O)c1cc2cc(C3=CCCN(C(=O)CCn4ccnc4)C3)ccc2o1` [Example I-310], the 50% inhibitory concentration (IC50) fell in the range of 1 to 10 µM.
Consider `CN(C)C(=O)c1cc2cc(C3=CCCN(C(=O)Cn4ccnc4)C3)ccc2o1` [Example I-311], for which the IC50 lay in the range of 10 to 100 µM.
In turn, `CN(C)C(=O)c1cc2cc(C3=CCCN(C(=O)CCc4ccccc4)C3)ccc2o1` [Example I-312] registered an IC50 of 10 to 100 µM.
As to `CN(C)C(=O)c1cc2cc(C3=CCCN(C(=O)Cn4cncn4)C3)ccc2o1` [Example I-315], the IC50 was 10 to 100 µM.
With `CN(C)C(=O)c1cc2ccc(C3=CCCN(C(=O)Cn4ccccc4=O)C3)cc2[nH]1` [Example I-316], the IC50 was in the range of 1 to 10 µM.
The result for `CN(C)C(=O)c1ccc2c(C3=CCCN(C(=O)CCn4ccnn4)C3)c[nH]c2c1` [Example I-317] reads 1 to 10 µM; that for `Cc1cn(CCC(=O)N2CCC=C(c3ccc4cc(C(=O)N(C)C)[nH]c4c3)C2)nn1` [Example I-319], 1 to 10 µM.
`CN(C)C(=O)c1cc2ccc(C3=CCCN(C(=O)C4CC4c4ccn(C)n4)C3)cc2[nH]1` (centres unmarked) [Example I-321] showed an IC50 of 10 to 100 µM.
In turn, `CN(C)C(=O)c1cc2ccc(C3=CCCN(C(=O)C4CC4F)C3)cc2[nH]1` (centres unmarked) [Example I-322] gave an IC50 of 10 to 100 µM.
